{"source": "ChEMBL document CHEMBL4888484", "about": "“Replenishing the malaria drug discovery pipeline: Screening and hit evaluation of the MMV Hit Generation Library 1 (HGL1) against asexual blood stage Plasmodium falciparum ,using a nano luciferase reporter read-out” (2022)", "note": "Out of some 150,000 compounds screened, about 540 (0.36%) showed an effect of 50% or more. This is one part of the list.", "data": [{"test_system": "Plasmodium falciparum", "test": "Primary screen in NF54 nanoGlo assay, in single point, at 2uM, 72h; a lower Z score goes with more inhibition", "type": "functional, Erythrocyte", "settings": "timepoint 72 hour", "units": {"% Inhibition": "%"}, "values": [{"smiles": "COC1CCCCC1OC(=O)CN1CCC(C)CC1", "note": "(centres undefined)", "% Inhibition": -6, "Z score": 1.15}, {"smiles": "CCCCCN(Cc1nc(C2CC2)n[nH]1)C(C)C", "% Inhibition": 2, "Z score": -0.19}, {"smiles": "Cc1cn2nc(C(=O)NCC(C)(C)C3CCCCC3)cc2c(=O)[nH]1", "% Inhibition": 1, "Z score": -0.11}, {"smiles": "O=C(NCc1ccc(F)cc1)[C@@]1(CCO)CCN(c2ncccn2)C1", "% Inhibition": -13, "Z score": 2.37}, {"smiles": "CCCc1nc(NCc2cc(O)ncn2)c2cnn(C)c2n1", "% Inhibition": -11, "Z score": 1.87}, {"smiles": "O=C(Nc1nc2c(s1)CCCC2)c1ccncc1", "% Inhibition": -1, "Z score": 0.16}, {"smiles": "COCCCN1C(=O)c2ccc(C(=O)Nc3c(-c4ccccc4)nc4c(C)cccn34)cc2C1=O", "% Inhibition": -14, "Z score": 1.68}, {"smiles": "Cc1ccc(O[C@H]2CCOC[C@H]2NC(=O)c2ocnc2C)cn1", "% Inhibition": -8, "Z score": 1.51}, {"smiles": "Cc1cc(C(=O)N2CCOC[C@@H](CO)C2)sc1-c1ccccc1", "% Inhibition": -9, "Z score": 1.2}, {"smiles": "Cc1ccc(-c2cc(C(F)(F)F)c3c(-c4ccccc4)nn(Cc4ccccc4)c3n2)cc1", "% Inhibition": 3, "Z score": -0.35}, {"smiles": "C[C@@H](c1ccc(-c2ncc(C(=O)O)s2)cc1)N1CCOCC1", "% Inhibition": -3, "Z score": 0.41}, {"smiles": "COCCCN(Cc1c(-c2ccccc2)noc1N(C)C1CCCCC1)C(=O)c1cccc(OC)c1", "% Inhibition": 3, "Z score": -0.36}, {"smiles": "COc1ccccc1C1C(C(=O)Nc2ccccc2)=C(C)NC(C)=C1C(=O)Nc1ccccc1", "% Inhibition": -11, "Z score": 1.57}, {"smiles": "CC(C)C(=O)NCc1ccc(-c2ncnn2Cc2ccc(F)cc2)cc1", "% Inhibition": 1, "Z score": -0.13}, {"smiles": "Cc1ccc(C)c(CN2CCC(N3CCC[C@H](C(=O)NCc4ccccn4)C3)CC2)c1", "% Inhibition": 5, "Z score": -0.71}, {"smiles": "OCCc1ccccc1-n1ccnc1-c1nc2ccccc2[nH]1", "% Inhibition": -15, "Z score": 1.28}, {"smiles": "Cc1nc(C)c(CC(=O)NCCc2nncn2C(C)C)s1", "% Inhibition": -10, "Z score": 0.97}, {"smiles": "N#Cc1ccncc1C(=O)N1CC2C3CCC(C3)C2C1", "note": "(centres undefined)", "% Inhibition": 25, "Z score": -2.88}, {"smiles": "CCOCCC(=O)N1CC[C@]23C(=O)N(CC(=O)N(C)CCCOc4cccc(c4)[C@H]12)c1ccccc13", "% Inhibition": -1, "Z score": 0.13}, {"smiles": "CC(C)(C)c1ccc(C(C)(C)C)c(NC(=O)N[C@H]2CS(=O)(=O)C[C@@H]2O)c1", "% Inhibition": 11, "Z score": -1.54}, {"smiles": "Cc1nn(C)c(C)c1OCCCS(C)(=O)=O", "% Inhibition": -2, "Z score": 0.21}, {"smiles": "Cc1ccnc(-c2noc([C@@H]3CCC(C)(C)O3)n2)n1", "% Inhibition": -6, "Z score": 1.17}, {"smiles": "COc1cc(Br)c(F)cc1S(=O)(=O)N(C)c1cccc2cccnc12", "% Inhibition": -5, "Z score": 0.84}, {"smiles": "Cc1nnc(N(C)C(=O)CNC(=O)C(C)(C)C)s1", "% Inhibition": 8, "Z score": -1.03}, {"smiles": "C[C@@H]1CN(C[C@@H]2CN(C(=O)c3ccc(F)cc3F)C[C@@H]2CO)C[C@H](C)O1", "% Inhibition": -6, "Z score": 0.63}, {"smiles": "CCc1nnc(CNC(=O)C(C)(C)N2CCCC2)s1", "% Inhibition": -6, "Z score": 0.6}, {"smiles": "Cc1ccc(CC(=O)N2CCc3[nH]nc(C(=O)N4CCOCC4)c3C2)cc1", "% Inhibition": -6, "Z score": 1.02}, {"smiles": "COc1ccc(CNc2cc(C)c(NC(C)=O)c(C)c2)s1", "% Inhibition": -3, "Z score": 0.43}, {"smiles": "Cc1c(C2CCN(S(C)(=O)=O)CC2)c2ccccc2n1Cc1ccc(Cl)cc1", "% Inhibition": -5, "Z score": 0.65}, {"smiles": "COc1c(F)ccc(CN2CCN3CCC[C@H]3C2)c1F", "% Inhibition": -14, "Z score": 1.81}, {"smiles": "O[C@H](COc1ccccc1-c1ccc2c(c1)OCO2)CN1CCOCC1", "% Inhibition": -1, "Z score": 0.12}, {"smiles": "CN1CCN(C(=O)c2ccc(C#CC(C)(C)O)o2)[C@H]2CS(=O)(=O)C[C@H]21", "% Inhibition": 2, "Z score": -0.42}, {"smiles": "O=C(N[C@@]1(C(F)(F)F)CCOC1)c1cccc(-n2ccnn2)c1", "% Inhibition": -3, "Z score": 0.3}, {"smiles": "COCn1cncc1[C@@H](Cc1ccccc1)C(=N)NO", "% Inhibition": 0, "Z score": 0.02}, {"smiles": "CN(C[C@]1(O)CCc2ccccc21)C(=O)c1ccnn1CC(F)F", "% Inhibition": 0, "Z score": 0.02}, {"smiles": "Cc1nccn1C[C@H]1CCc2c(c3ccccc3n2C)C1=O", "note": "[(R)-ONDANSETRON]", "% Inhibition": -1, "Z score": 0.1}, {"smiles": "Cc1nc(C)n(C2CN(C(=O)Nc3ccccc3C(F)(F)F)C2)n1", "% Inhibition": -11, "Z score": 1.16}, {"smiles": "O=C(c1cc(-c2ccc(Cl)cc2)nc2ccc(Br)cc12)N1CCN(C(=O)[C@@H]2CCCO2)CC1", "% Inhibition": -10, "Z score": 1.21}, {"smiles": "O=C(Nc1cnc2ccccc2c1)[C@@H]1CCCO1", "% Inhibition": 4, "Z score": -0.57}, {"smiles": "CCOc1ccc(-c2cn(C3CN(C(=O)[C@H]4CCOC4)C3)nn2)cc1", "% Inhibition": -8, "Z score": 0.73}, {"smiles": "Cc1c(C(=O)N(C)C)sc2c1c(=O)n(-c1ccc(Cl)c(Cl)c1)c(=O)n2CC(=O)N1CCCC[C@@H]1C", "% Inhibition": -9, "Z score": 1.06}, {"smiles": "CC(C)c1ccc(N2C(=O)[C@@H]3C[C@@H](NC(=O)c4ccncc4)CCN3C2=O)cc1", "% Inhibition": -9, "Z score": 1.4}, {"smiles": "Cc1nc(N2CCCC2)nc(C)c1NC(=O)C1CCN(S(C)(=O)=O)CC1", "% Inhibition": -12, "Z score": 2.13}, {"smiles": "CC(C)(C)OC(=O)NCc1cnn(Cc2cn3cccnc3n2)c1", "% Inhibition": -1, "Z score": 0.17}, {"smiles": "COc1ccc(N(C(=O)c2sc3cc(F)ccc3c2Cl)S(=O)(=O)c2ccc(Cl)c(NC(=O)c3sc4cc(F)ccc4c3Cl)c2)cc1", "% Inhibition": -4, "Z score": 0.75}, {"smiles": "COCCN(Cc1[nH]c2ccccc2c1C)CC1CCN(Cc2ccccc2OC)CC1", "% Inhibition": 0, "Z score": -0.01}, {"smiles": "Cc1nc(-c2c3n(c(=O)n(CC(=O)Nc4ccc(C)c(C)c4)c2=O)CCCC3)no1", "% Inhibition": 1, "Z score": -0.13}, {"smiles": "O=C(O)C1CCC(C(=O)N2CCC[C@H](c3cccc(C(F)(F)F)c3)C2)CC1", "note": "(some centres undefined)", "% Inhibition": -12, "Z score": 1.19}, {"smiles": "C(=C\\c1ccccc1)/CN1CCN(c2ncncn2)CC1", "% Inhibition": -10, "Z score": 1.7}, {"smiles": "C=CCn1c(-c2ccccc2Cl)cn2cc(C(=O)N3CCN[C@H](C)C3)nc2c1=O", "% Inhibition": -11, "Z score": 2.05}, {"smiles": "NC(=O)c1cncc(N2CCC3C(CCCN3Cc3ccccc3)C2)n1", "note": "(centres undefined)", "% Inhibition": -5, "Z score": 0.81}, {"smiles": "CCc1ccc(NC(=O)[C@H]2CC(=O)N(c3cccc(C(=O)Nc4ccccc4)c3)C2)cc1", "% Inhibition": -23, "Z score": 2.22}, {"smiles": "Cc1nn(-c2ccccc2)c2sc(-c3noc(CNC(=O)c4cccs4)n3)cc12", "% Inhibition": 3, "Z score": -0.29}, {"smiles": "CCCN(Cc1c(C)nn(-c2ccccc2)c1N1CCN(CC)CC1)C(=O)Nc1cccc(C)c1", "% Inhibition": -4, "Z score": 0.67}, {"smiles": "Cc1ncsc1CCCn1ccnc1-c1cccc2nonc12", "% Inhibition": -3, "Z score": 0.33}, {"smiles": "O=C1CCCN1CC(=O)N(CC1CCN(C2Cc3ccccc3C2)CC1)C[C@H]1CCCO1", "% Inhibition": -10, "Z score": 1.88}, {"smiles": "Fc1cc2ncn(CN(C3CCCC3)C3CC3)c2cc1F", "% Inhibition": 0, "Z score": -0.03}, {"smiles": "COc1ccc(N2CCN3c4cc(OC)ccc4CC(C(=O)NCCC(C)C)C3C2)cc1", "note": "(centres undefined)", "% Inhibition": -8, "Z score": 0.95}, {"smiles": "O=C(NCCNC(=O)C1CCCO1)C1CCCO1", "note": "(centres undefined)", "% Inhibition": -3, "Z score": 0.27}, {"smiles": "CC[C@H]1Cn2c(C(=O)N3CCN(c4ccccn4)CC3)cc3c(Cl)ccc(c32)O1", "% Inhibition": 39, "Z score": -5.66}, {"smiles": "Cc1cccc(CC(=O)N2CCc3nc(CNC(=O)C4CCC4)n(C)c3C2)c1", "% Inhibition": -2, "Z score": 0.18}, {"smiles": "CN(Cc1cc2ccccc2[nH]1)C(=O)C1C2CCCC21", "note": "(centres undefined)", "% Inhibition": -13, "Z score": 1.83}, {"smiles": "Cc1ccccc1C(=O)N1CC(S(=O)(=O)C2CCCCC2)C1", "% Inhibition": -5, "Z score": 0.7}, {"smiles": "Cc1ccc2c(c1)[C@@H](NC(=O)N1CCC3(CC1)CNC(=O)O3)CC(C)(C)O2", "% Inhibition": -9, "Z score": 1.79}, {"smiles": "Cc1cc(C(=O)N(C)[C@@H](C)c2cc3ccccc3[nH]2)cnc1C", "% Inhibition": -2, "Z score": 0.25}, {"smiles": "O=C1Nc2ccc(-c3ccc(F)cc3F)cc2C(=O)N2C[C@H](O)C[C@@H]12", "% Inhibition": 6, "Z score": -1.01}, {"smiles": "O=C(Nc1ccc(-c2cccc(F)c2)c(F)c1)N1CCO[C@@H](CO)C1", "% Inhibition": -6, "Z score": 0.65}, {"smiles": "COC(=O)CCC(C)(C)NC(=O)c1csc(C)n1", "% Inhibition": -11, "Z score": 1.13}, {"smiles": "CC(C)c1oncc1NC(=O)c1cc[nH]c(=O)c1", "% Inhibition": 10, "Z score": -1.91}, {"smiles": "O=C1CS(=O)(=O)N(Cc2ccccc2F)c2cc(Cl)ccc21", "% Inhibition": 2, "Z score": -0.18}, {"smiles": "CCN(CC(=O)Nc1ccc2c(c1)OCCO2)CC(=O)N(CC)C1=CCCCC1", "% Inhibition": -6, "Z score": 0.7}, {"smiles": "O=C(NCC1CCCN(c2ccc3ccccc3n2)C1)C1CCCN1", "note": "(centres undefined)", "% Inhibition": -14, "Z score": 2.54}, {"smiles": "Cc1ccc(N(Cc2ccco2)S(=O)(=O)c2cnn(C)c2)cc1", "% Inhibition": 0, "Z score": -0.01}, {"smiles": "Cn1nnc(NS(=O)(=O)c2cccc(N)c2)n1", "% Inhibition": -6, "Z score": 1}, {"smiles": "CCN(Cc1nc(-c2cccs2)no1)[C@H]1CCOC(C)(C)C1", "% Inhibition": -3, "Z score": 0.51}, {"smiles": "CC(C)(C)OC(=O)NCc1ccccc1", "% Inhibition": -9, "Z score": 1.1}, {"smiles": "NC(=O)C1CCN(C(=O)c2cnc3ccccc3n2)CC1", "% Inhibition": -4, "Z score": 0.77}, {"smiles": "O=C1C2C3CC4C(OC(C42)N1c1ccccc1)C3O", "note": "(centres undefined)", "% Inhibition": -12, "Z score": 1.13}, {"smiles": "C=CCN(C)C(=O)Nc1cc(C)ccc1S(C)(=O)=O", "% Inhibition": -12, "Z score": 1.81}, {"smiles": "Cc1cccc(NS(=O)(=O)c2cc3c(=O)n(C)nc(C)n3c2)c1C", "% Inhibition": 4, "Z score": -0.66}, {"smiles": "COCCc1nc(Cn2ccnc2)n(Cc2cccc(C)c2)n1", "% Inhibition": -6, "Z score": 1.04}, {"smiles": "Cc1ccc(-c2nccn3cc(C(=O)N4CCCCC4)nc23)cc1", "% Inhibition": -2, "Z score": 0.32}]}]}
